These results are taken from the RNAGym collection of RNA variant scans (doi:10.7554/elife.90254).

The source gives no read counts; variants with many changes may rest on few reads.

B1: LINE1-mini (parent)
chain: GGCAGAGCUCAACACAGCGUGGCAAAGUGGCUGUGGCUAGACUGCC

The variants in the data set derive from B1. Kind of data set: self-cleavage, relative activity (ratio to wild type); higher = more cleavage; in vitro, sequencing; the parent is a self-cleaving ribozyme.
G17A G22A C31A A39G: the self-cleavage was determined as 0.02.
The same measure for C3G G7A A39C: 0.11; for G2C C8U A24U G40A C45G: 0.03.
A4C G5U A11G G17U G27C C31G: the self-cleavage was 0.01.
For the variant G2C U9A A12G, the self-cleavage was found to be 0.02.
Consider G2C C3G C46U, for which the self-cleavage worked out at 0.02.
Regarding G2C U9A G27C, the self-cleavage stood at 0.19.
The same measure for G1C A25U U28A G40C: 0.02.
For the variant A6U U9A G21U G33U, the self-cleavage is 0.09.
With C3G A12C G33A the figure was 0.03; with A4C C13A G27U C31U C42G, 0.04.
With G19C C37U A39G the figure was 0.01; with G2C C15A G36C, 0.1.
Turning to G7C A25G G33U G40C, the self-cleavage is 0.1.
The same measure for G30A G35C C45U C46A: 0.05; for U9G A12C G27A C31U G33C G36U C42G: 0.
U9G C15U G21U A25G G33U A39C G44A: the self-cleavage stood at 0.
With A11U C23U G36A the figure was 0; with G2C G27A G33C A39U C42A, 0.01.
The same measure for G5U C10G A41C: 0.03; for C18U G27U U38A: 1.6; for G5U G19U C45G: 0.01.
The same measure for G7U U9C A24G A26G: 1.
Take C10U C18U U20A A26U G30C U34A C37G: the self-cleavage came to 0.
Consider A14U C23G U32G G44C, for which the self-cleavage turned out to be 0.04.
For A4G A11C C13G, the self-cleavage was found to be 0.04.
With U9C G17C G27A the figure was 0.01; with G2A U20G G29A G35A C42U, 0.36; with C13G A24U G40C, 0.01.
With C13A A24G G29U C45G the figure was 0.14.
With G5C C13U G19U G30C the figure was 0.03; with C3A C18G U20G G36U A39C C46U, 0.13; with C13A C15G G44A, 0.01.
As to U20G C23A C37G, the self-cleavage came to 0.02.
Turning to U9G A16C A25G G27A, the self-cleavage is 0.1.
The same measure for U9C C15A G19A: 0.02; for A4C G5U C8G A26C A39C G40U: 0.02; for A4G G19U G29C G44C C45A: 0.02.
Consider A12U C13U A14C G19U G44A, for which the self-cleavage stood at 0.02.
The same measure for C3A G17A U28C G30A G35C: 0.15.
The same measure for A25C G27C G36U: 0.05; for G7U C18A C45U: 0.01; for G5A G40C A41G: 0.04.
The same measure for G7A C10G A11U G22U C23U: 0.01.
On to G2C C18A C23A U32G C45A, for which the self-cleavage was 0.07.
A14G A16G A41G: the self-cleavage was 0.
With C13A U32A G40C the figure was 0.1; with A14U G30U U32G C45U, 0.03.
Turning to A4C G7U G17A C46G, the self-cleavage worked out at 0.25.
With A4C G36C G44A the figure was 0.14; with A11C U32G G33A C42A, 0.01; with A11C A12U G33A G40A, 0.01.
The same measure for A14C C18U G36U: 0.11.
As to G2U A12C G21U A26G G36C, the self-cleavage was 0.01.
In the case of U9C G29A U34C G35A, the self-cleavage turned out to be 0.11.
For G19U U20C C23A, the self-cleavage is 0.12.
The same measure for A6U U28G C31U: 0.25.
Turning to A6C C10A A14C A16U C46U, the self-cleavage came to 1.63.
As to U32C U38A G44C, the self-cleavage is 0.04.
Regarding U20G G21U C23U A41G, the self-cleavage worked out at 0.27.
With A12C A16C A39U the figure was 0.03.
As for A6C C10A A16C U20A G30C, the self-cleavage was 0.01.
The same measure for A12U C37A U38G A41C: 0.01; for G7U A11C A39G: 0.03.
Take C18U G35A C46U: the self-cleavage was determined as 0.02.
With G30A G33A C37U C42A the figure was 0.08; with U28C C31G A39U A41G, 0.07.
The same measure for U9A A12G C13U: 0.12.
The same measure for A14G G29U G35U C37U U38G C45A: 0; for G5C G22A C23G: 0.07.
As for A11G G21U G30C, the self-cleavage amounted to 0.04.
With G2C G17U C42U the figure was 0.03; with A4U C8U C10G U20C G40A U43C, 0.01; with A26U C31U U38G C45A, 0.01.
The same measure for C3A G21A C23U U34A C42G G44A: 0.2.
The same measure for U20A A26G U43C: 0.01; for G7A C15A G35C C45A: 0.15; for G1C C8U C10G G35U C37G G40C: 0.
As to C10U G19C C23U G29A G33C, the self-cleavage is 0.04.
With C13U C18U G22A A25C U43C the figure was 0.03; with A16G G17C U32A, 0.24.
In the case of C10A A24C U32A C46A, the self-cleavage was 0.01.
The same measure for C3G C8G U20C G30C C45G: 0.08.
The same measure for A6U C15U C42G: 0.01.
On to A6U C8A G21U, for which the self-cleavage amounted to 0.25.
As for C18U G29U C45U, the self-cleavage was 0.4.
With G1A G36A G40C the figure was 0.18; with C13G G17U C45U, 0.1; with C10U C15A A41G, 0.08.
With C18G G36A U38C the figure was 0.04; with A16G G35A G36A, 0.03; with C13A C15U G27U G36U, 0.05.
As for G17C G19U G21A, the self-cleavage was 0.11.
Consider A4U C8U A14G A16U C37U, for which the self-cleavage was 0.01.
With C8A C15G U32A the figure was 0.04.
For the variant G7U G29A C31U, the self-cleavage worked out at 0.05.
The same measure for A14G C37A A41U: 0.08; for C13A A26C G33A: 0.05.
As to G2U C3A A11G U20C G29U A39G, the self-cleavage is 0.
As to G2U C18G A25G, the self-cleavage was 0.02.
The same measure for U9C C13U C18G G19C G33C U43C: 0.01; for G7C C13U C23A: 0.69; for U9A G17A G22A G29A G36A: 0.04.
In the case of C15A G19A G44C C46U, the self-cleavage stood at 0.02.
With A6G A16U A24G A25U the figure was 0.01.
The same measure for C18U C23G A24U A25U G35A G36U C42U: 0.06; for A11C U32A G33U A41G C46A: 0.02; for C3A G5U C18U C23U: 0.4.
For C3A G21C U28C U34A, the self-cleavage turned out to be 0.12.
Turning to U9C C10A G44A, the self-cleavage came to 0.02.
A6U U9C U34A G40U: the self-cleavage was found to be 0.03.
In the case of A16C G17C U20G U43C, the self-cleavage was found to be 0.04.
With G5A G7C A11C U20C C46A, the self-cleavage was found to be 0.06.
As to C3U G5U A6U C10U G33A, the self-cleavage worked out at 0.03.
The same measure for C15A G19A C23G A39G: 0.05.
For the variant U9C G22A C23A U34G C46A, the self-cleavage stood at 0.
The same measure for A4U A6C A14C U20A G21C: 0.01; for C18U G21U U28A: 0.46.
With A4C A24C G30C the figure was 0.24; with G19A A25C U28G, 0.89.
Regarding G7A C18A G22C G40A, the self-cleavage was 0.04.
With G5U G17A C23A G35A the figure was 0.03.
The same measure for G27A G30U A41C: 0.08; for G1A A4C C45G: 0.1; for U9G A11C U20G C37U: 0.
For the variant A4U A6G G27A C31U C42G C45U, the self-cleavage came out at 0.03.
As to G2A A12G C15A A16U A25C, the self-cleavage is 0.16.
The same measure for G5U U20A G40U C42A: 0.1; for G33C U34G C37U: 0.02.
As for A12U G27A C37G, the self-cleavage worked out at 0.01.
The same measure for A14G C15G U34A A39C G40A: 0.
With G7A G29C A39U the figure was 0.07; with A11U G17A G30A, 0; with C31U C45U C46A, 0.1.
As to A14G A25C U43G, the self-cleavage was 0.
The same measure for C3G A14G G44A: 0.5; for G29U A39G C42G G44A C45G: 0.05.
The same measure for A11U U20C C42U: 0.06; for A25G G36A C45U: 0.15; for C13A G22C C37G A41C U43A: 0.01.
The same measure for G22C G29A C37G: 0.
Regarding A16G G21A A41G, the self-cleavage was 0.17.
For A4C C13U C23G G44A, the self-cleavage was found to be 0.5.
Take G17U G19U U28C: the self-cleavage was found to be 0.04.
The same measure for A11G G30A A39U: 0.01.
The same measure for C31U G33U G40A: 0.01.
Consider G19U G35C G36C, for which the self-cleavage turned out to be 0.06.
The same measure for G1A A6G G17C U20G U28C U32A: 0.04; for A6C C10A U28A: 0.01.
On to C13U U20C A24C G29C G33C C42A, for which the self-cleavage is 0.01.
Consider C3U C15A G19A U34G C37U, for which the self-cleavage stood at 0.03.
In the case of G27U C31A G33A, the self-cleavage stood at 0.13.
The same measure for A25C A39U C45A C46U: 0.14; for A4G G21U G30A: 0.38.
With C8A A14C C46G the figure was 0.14; with A6U C13U C15G, 0.02.
The same measure for G1U G2C C3A G5U G17A C23G A26G C42G: 0.05; for G7U A26G G27U U28G G30C C31U U32G G33U U34G: 0.02; for G5U U43A C45U: 0.
Take G40A C45A C46U: the self-cleavage was found to be 0.13.
With C13A A24U C37U the figure was 0.23; with U9G C23U A26G, 0.02; with C3U C31A C42U C45G, 0.03.
As for G2A G17A U32C C42A, the self-cleavage was 0.01.
With G5C A6G C31A U34G C45U, the self-cleavage worked out at 0.03.
As for C3G G5C U20A G22A C45U, the self-cleavage was 0.05.
As for G1U G2U G7C C8A U20C G27C G29A A41C, the self-cleavage came to 0.01.
